Data on 4 molecules can be found in patent EP4786492A1 (Simcere Zaiming Pharmaceutical Co., Ltd., dated 2026).

Several values for one entry are separate records, joined by “and”; a condition that tells them apart may be missing. Equal values may be shown once.

For assay [1], the target named is T1, human DLL3 protein (extracellular segment, His tag) (human, UniProt Q9NYJ7 27-492).
T1 construct: also called human DLL3-his protein; DLL3 antigen; not shown: His tag
T1 sequence: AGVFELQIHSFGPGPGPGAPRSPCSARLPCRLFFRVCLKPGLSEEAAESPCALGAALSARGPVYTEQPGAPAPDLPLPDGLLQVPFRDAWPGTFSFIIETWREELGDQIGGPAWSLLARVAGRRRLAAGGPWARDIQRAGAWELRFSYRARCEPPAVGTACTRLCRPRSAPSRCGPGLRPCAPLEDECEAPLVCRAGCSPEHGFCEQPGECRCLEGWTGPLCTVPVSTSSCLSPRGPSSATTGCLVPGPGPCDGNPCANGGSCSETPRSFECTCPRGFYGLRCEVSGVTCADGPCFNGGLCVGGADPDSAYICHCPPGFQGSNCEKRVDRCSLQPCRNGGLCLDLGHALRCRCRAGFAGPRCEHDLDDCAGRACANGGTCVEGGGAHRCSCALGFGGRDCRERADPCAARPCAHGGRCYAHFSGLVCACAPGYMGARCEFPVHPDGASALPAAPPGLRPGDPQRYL
Nature of the assay: SPR (Biacore 8K), antibody captured on Protein A chip, DLL3 antigen in solution, 1:1 Langmuir fit. In general terms: SPR reads the build-up and loss of mass on a sensor chip optically.

The target of another assay is T2, monkey DLL3-his protein (cynomolgus monkey, UniProt Q9NYJ7 27-490 (human entry)).
T2 construct: a bought cynomolgus DLL3-His (Acro DL3-C52H3) is also named; also called monkey DLL3 protein; cynomolgus monkey DLL3-His; not shown: His tag
T2 chain: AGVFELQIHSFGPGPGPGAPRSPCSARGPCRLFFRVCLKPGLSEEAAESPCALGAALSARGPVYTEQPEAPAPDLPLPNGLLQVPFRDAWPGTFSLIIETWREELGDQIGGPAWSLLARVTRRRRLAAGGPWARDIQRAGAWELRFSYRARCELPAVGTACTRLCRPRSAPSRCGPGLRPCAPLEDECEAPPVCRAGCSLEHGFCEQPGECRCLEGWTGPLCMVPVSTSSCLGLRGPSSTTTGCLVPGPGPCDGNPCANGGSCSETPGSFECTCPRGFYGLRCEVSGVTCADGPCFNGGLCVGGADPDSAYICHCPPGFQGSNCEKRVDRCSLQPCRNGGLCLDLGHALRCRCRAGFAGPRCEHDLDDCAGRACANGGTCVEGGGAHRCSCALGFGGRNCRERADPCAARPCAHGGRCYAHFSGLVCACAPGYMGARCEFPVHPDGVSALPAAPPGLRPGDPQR
The assay is described as follows: ELISA, coated DLL3-his. (In general: An ELISA detects its analyte on a solid surface through an enzyme-linked reagent.)

Assay [2] concerns the target T3, monkey DLL3 on CHO-K1-cyno DLL3 cells (cynomolgus monkey).
T3 construct: also called cynomolgus monkey DLL3
T3 chain: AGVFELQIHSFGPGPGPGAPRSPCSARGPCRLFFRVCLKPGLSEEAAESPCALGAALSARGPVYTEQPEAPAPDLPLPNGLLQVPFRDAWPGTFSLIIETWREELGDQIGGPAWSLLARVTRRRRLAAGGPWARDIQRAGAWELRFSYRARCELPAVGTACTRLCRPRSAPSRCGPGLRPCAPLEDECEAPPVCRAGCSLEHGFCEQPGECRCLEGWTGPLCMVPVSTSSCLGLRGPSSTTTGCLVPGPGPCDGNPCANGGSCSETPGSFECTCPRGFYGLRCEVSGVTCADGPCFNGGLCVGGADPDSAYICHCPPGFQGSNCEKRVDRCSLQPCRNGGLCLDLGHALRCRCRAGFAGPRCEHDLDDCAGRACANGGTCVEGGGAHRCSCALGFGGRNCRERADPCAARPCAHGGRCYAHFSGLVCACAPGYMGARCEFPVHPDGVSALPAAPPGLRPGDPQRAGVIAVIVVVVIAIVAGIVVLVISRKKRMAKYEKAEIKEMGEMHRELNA
Nature of the assay: FACS, CHO-K1-cyno DLL3 cells, 4 nM antibody. For orientation: A flow cytometer gives signals particle by particle.

Assay [3] has as its target T3, monkey DLL3 on CHO-K1-cyno DLL3 cells. The assay is described as follows: FACS, CHO-K1-cyno DLL3 cells, 20 nM antibody.
Assay [4] shares this target. The assay is described as follows: FACS, CHO-K1-cyno DLL3 cells, 0.8 nM antibody.
Assay [5] has the same target. The assay is described as follows: FACS, CHO-K1-cyno DLL3 cells, 100 nM antibody.
Assay [6] shares this target. The assay is described as follows: FACS, CHO-K1-cyno DLL3 cells, 0.16 nM antibody.
Assay [7] has the same target. The assay is described as follows: FACS, CHO-K1-cyno DLL3 cells, 0.032 nM antibody.
For assay [8] the target is unchanged. Nature of the assay: FACS, CHO-K1-cyno DLL3 cells, 0.0064 nM antibody.
The target is the same in assay [9]. The assay is described as follows: FACS, CHO-K1-cyno DLL3 cells, 0.00128 nM antibody.
Assay [10] concerns the target T4, mouse DLL3 on CHO-K1-mDLL3 cells (mouse, UniProt O88516 33-490).
T4 sequence: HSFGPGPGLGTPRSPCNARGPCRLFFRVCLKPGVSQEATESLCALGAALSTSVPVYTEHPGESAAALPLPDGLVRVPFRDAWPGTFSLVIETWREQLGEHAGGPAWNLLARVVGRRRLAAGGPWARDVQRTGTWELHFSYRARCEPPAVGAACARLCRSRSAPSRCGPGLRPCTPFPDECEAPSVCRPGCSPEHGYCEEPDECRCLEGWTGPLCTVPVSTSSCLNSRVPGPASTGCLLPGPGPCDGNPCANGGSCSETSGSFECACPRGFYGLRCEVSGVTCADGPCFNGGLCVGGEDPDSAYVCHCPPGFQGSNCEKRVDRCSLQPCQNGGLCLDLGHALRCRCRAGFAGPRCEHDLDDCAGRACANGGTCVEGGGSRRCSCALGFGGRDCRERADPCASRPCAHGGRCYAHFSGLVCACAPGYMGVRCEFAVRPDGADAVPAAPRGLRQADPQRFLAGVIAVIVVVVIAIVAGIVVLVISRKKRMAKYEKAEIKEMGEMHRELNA
The assay is described as follows: FACS, CHO-K1-mDLL3 cells, 4 nM antibody.

The target of assay [11] is T4, mouse DLL3 on CHO-K1-mDLL3 cells. The assay is described as follows: FACS, CHO-K1-mDLL3 cells, 20 nM antibody.
The target is the same in assay [12]. The assay is described as follows: FACS, CHO-K1-mDLL3 cells, 0.8 nM antibody.
The target is the same in assay [13]. The assay is described as follows: FACS, CHO-K1-mDLL3 cells, 100 nM antibody.
Assay [14] has the same target. The assay is described as follows: FACS, CHO-K1-mDLL3 cells, 0.16 nM antibody.
Assay [15] shares this target. The assay is described as follows: FACS, CHO-K1-mDLL3 cells, 0.032 nM antibody.
Assay [16] has the same target. The assay is described as follows: FACS, CHO-K1-mDLL3 cells, 0.0064 nM antibody.
For assay [17] the target is unchanged. The assay is described as follows: FACS, CHO-K1-mDLL3 cells, 0.00128 nM antibody.

B1: AMG757-4 scFv-hFc (Fc fusion)
scFv: QVQLQESGPGLVKPSETLSLTCTVSGGSISSYYWSWIRQPPGKCLEWIGYVYYSGTTNYNPSLKSRVTISVDTSKNQFSLKLSSVTAADTAVYYCASIAVTGFYFDYWGQGTLVTVSSGGGGSGGGGSGGGGSEIVLTQSPGTLSLSPGERVTLSCRASQRVNNNYLAWYQQRPGQAPRLLIYGASSRATGIPDRFSGSGSGTDFTLTISRLEPEDFAVYYCQQYDRSPLTFGCGTKLEIK[human IgG1 Fc with C220S (EU numbers) cut from this listing]
notes: control antibody; scFv-human IgG1 Fc, variable regions from WO2017021349A1
B1: in assay [1], the Kd – broadly, the equilibrium constant for the complex coming apart – was 0.0725 nM and 0.0532 nM; the koff (usually the rate constant with which the complex falls apart) was 9.35e-05 s⁻¹ and 7.51e-05 s⁻¹; the kon (as a rule, the rate constant with which the complex forms) is 1.29e+06 M⁻¹ s⁻¹ and 1.41e+06 M⁻¹ s⁻¹.

B2: AMG757-4 scFv-hFc (Fc fusion)
scFv: B1 scFv
notes: VH, VL and human IgG1 Fc linked from N- to C-terminus (scFv-hFc); variable regions from WO2017021349A1; also called control antibody
As for B2, in the assay with monkey DLL3-his protein, the binding result is “binds”.

B3: mab008 scFv-hFc (scFv)
chain: DIVMTQSQKFMSTSVGDRVSITCKASQNVGTAVAWYQQKPGQSPKLLIFSASIRYTGVPDRFTGSGSGTDFTLTISNMQSEDLADYFCQQYSSSPYTFGGGTKLEIKEVQLQQSGPVLVKPGASVKMSCKASGYTFTDYYMNWVKRSHGKSLEWIGIINPYNGGTSYNQKFRGKATLTVDKSSNTAYMELNSLTSEDSAVYYCSRYDYDYDVEGAMDYWGQGTSVTVSS[human IgG1 Fc cut from this listing]
For B3, the MFI stood at 15100 MFI in assay [2]; 20200 MFI in assay [3]; 5340 MFI in [4]; 19600 MFI in assay [5]; 879 MFI in assay [6]; 309 MFI in assay [7]. Besides, the MFI worked out at 169 MFI in assay [8] and 113 MFI in [9].

B4: mab014 scFv-hFc (scFv)
chain: DIQMTQSSSSFSVSLGDRVTITCKASEDIYNRLAWYQQKPGNTPRLLISGATSLETGVPSRFSGSGSGKDFTLSITSLQTEDVATYYCQQYWSLPWTFGGGTKLEIKEVQLHQSGPELVKPGTSVKISCKASGYTFTDYYMNWVKQSHGKSLEWIGDINPNHGDTGYNQKFTGKATLTVDKSSSTAYMELRSLTSEDSAVYYCARNFFYYGTTYGWYFDVWGTGTTVTVSS[human IgG1 Fc cut from this listing]
B4: the MFI in assay [10] was found to be 300 MFI; in assay [11] it was 354 MFI; in assay [12], 260 MFI; in [13] it was 424 MFI; in [14], 205 MFI; in [2] it was 27700 MFI. The MFI in assay [15] stood at 152 MFI; in assay [3] it was 32200 MFI; in assay [16], 117 MFI; in assay [4], 9540 MFI; in assay [5], 34600 MFI; in [17], 105 MFI. Also, the MFI was 1500 MFI in assay [6], 498 MFI in assay [7], 243 MFI in assay [8] and 184 MFI in assay [9].
